Experimental data as given in the supplement of paper PMC9446081.
Hit rate of the full screen: of about 39,000 compounds, about 220 (0.56%) showed activity. This is one part of the list.

System: Escherichia coli K-12 BW25113
Assay: relative growth (OD600 normalised to plate interquartile mean) (fraction); higher = less growth inhibition, active = 0.2 or less
Details: 50 µM; LB; incubation time: overnight (16-24 h)
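Further: static incubation at 37 °C against the wild-type strain, values averaged over two biological replicates.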

Q: O=c1c2cc(O)c(O)cc2oc2cc(O)c([C@H]3O[C@H](CO)[C@H](O)[C@@H](O)[C@H]3O)c(O)c12 was tested. Which relative growth did it give?
A: The relative growth was inactive: 0.998.

Q: How did the relative growth turn out when CCn1[nH]c(N)c2c(=O)[nH]c(=O)cc1-2 was run?
A: Its relative growth is inactive: 1.

Q: Which relative growth does the source give for CCCNC(=O)N[C@H]1C=C[C@@H](CC(=O)N2CCN(C)CC2)O[C@@H]1CO here?
A: Its relative growth is inactive: 1.01.

Q: For COc1cc(N2CCC(N(C)C)CC2)ccc1Nc1ncc(Cl)c(Nc2ccccc2P(C)(C)=O)n1, which relative growth is on record?
A: The relative growth was inactive: 0.979.

Q: For COc1ccc2c(c1)c(CC(=O)O)c(C)n2C(=O)c1ccc(Cl)cc1, which relative growth is on record?
A: Its relative growth is inactive: 0.919.

Q: How did the relative growth turn out when C[C@H](CO)N1C[C@H](C)[C@@H](CN(C)S(=O)(=O)c2cccs2)OCCCC[C@H](C)Oc2ccc(NC(=O)c3ccccc3)cc2C1=O was run?
A: The relative growth was inactive: 1.04.

Q: How did the relative growth turn out when C[C@H]1CN([C@@H](C)CO)C(=O)Cc2cc(NC(=O)Nc3cccc4ccccc34)ccc2O[C@H]1CN(C)Cc1ccccc1 was run?
A: Its relative growth is inactive: 0.983.

Q: How did the relative growth turn out when CC(C)NC(=O)N(C)C[C@@H]1Oc2c(NS(=O)(=O)c3ccc(Cl)cc3)cccc2C(=O)N([C@H](C)CO)C[C@@H]1C was run?
A: Its relative growth is inactive: 1.01.

Q: For CC1(C)C=Cc2c(c3c(c4c(=O)c(-c5ccc(O)c(O)c5)coc24)OC(C)(C)CC3)O1, which relative growth is on record?
A: Its relative growth is inactive: 0.981.

Q: How did the relative growth turn out when CC1(C)SCN(S(=O)(=O)c2ccccc2)[C@@H]1C(=O)N[C@@H](CNC(=O)NCc1ccccc1)C(=O)O was run?
A: The relative growth was inactive: 0.997.

Q: For C[C@@H]1CN([C@H](C)CO)C(=O)CCCn2nncc2CO[C@@H]1CN(C)C(=O)Nc1cccc2ccccc12, which relative growth is on record?
A: Its relative growth is inactive: 0.988.

Q: How did the relative growth turn out when C=C/C=C/[C@@H]1C(=C)CN([C@@H](Cc2ccccc2)C(=O)OC)[C@H]1[C@@H](O)CCn1cc(CCC(=O)NO)nn1 was run?
A: Its relative growth is inactive: 0.973.

Q: For C[C@@H]1CN([C@H](C)CO)C(=O)c2cccc(NC(=O)Nc3ccc(C(F)(F)F)cc3)c2O[C@H]1CN(C)S(C)(=O)=O, which relative growth is on record?
A: Its relative growth is inactive: 0.953.

Q: How did the relative growth turn out when COc1ccc(NC(=O)N(C)C[C@@H]2OCCCC[C@@H](C)Oc3ccc(NC(=O)NC(C)C)cc3C(=O)N([C@H](C)CO)C[C@@H]2C)cc1 was run?
A: Its relative growth is inactive: 1.

Q: How did the relative growth turn out when COc1cc2c(cc1O)CCN[C@]21CS[C@@H]2c3c(OC(C)=O)c(C)c4c(c3[C@H](COC1=O)N1[C@@H]2[C@H]2c3c(cc(C)c(OC)c3O)C[C@@H]([C@@H]1O)N2C)OCO4 was run?
A: The relative growth was inactive: 0.453.

Q: For C[C@H]1CN([C@@H](C)CO)C(=O)c2cccc(NC(=O)Nc3ccccc3)c2O[C@H]1CN(C)Cc1ccc(C(=O)Nc2ccccc2N)cc1, which relative growth is on record?
A: The relative growth was inactive: 1.02.

Q: For COc1ccccc1C#Cc1ccc2c(c1)O[C@@H](CN(C)Cc1cncnc1)[C@H](C)CN([C@H](C)CO)S2(=O)=O, which relative growth is on record?
A: Its relative growth is inactive: 1.03.

Q: Which relative growth does the source give for CCCn1c(N)nc2c1c(=O)n(C)c(=O)n2C here?
A: The relative growth was inactive: 1.03.

Q: How did the relative growth turn out when C[C@@H]1CN([C@@H](C)CO)C(=O)c2cc(NS(=O)(=O)c3ccccc3)ccc2O[C@@H](C)CCCCO[C@@H]1CN(C)C(=O)Nc1ccc(F)cc1 was run?
A: The relative growth was inactive: 0.997.

Q: For C[C@H](N[P@@](=O)(OC[C@H]1O[C@@H](n2ccc(N)nc2=O)C(F)(F)[C@@H]1O)Oc1ccccc1)C(=O)OCc1ccccc1, which relative growth is on record?
A: The relative growth was inactive: 0.982.

Q: Which relative growth does the source give for O=C(C[C@@H]1C[C@@H]2c3cc(NS(=O)(=O)c4ccccc4)ccc3O[C@@H]2[C@H](CO)O1)NC1CCCCC1 here?
A: Its relative growth is inactive: 1.04.

Q: How did the relative growth turn out when COc1ccc(CN(C)C[C@@H]2OCCCC[C@H](C)Oc3ccc(NC(=O)Nc4c(C)noc4C)cc3C(=O)N([C@H](C)CO)C[C@@H]2C)cc1 was run?
A: The relative growth was inactive: 1.03.

Q: With C[C@@H]1CN([C@@H](C)CO)C(=O)Cc2cc(NS(=O)(=O)c3cn(C)cn3)ccc2O[C@@H]1CN(C)S(C)(=O)=O as the compound, how does the relative growth read?
A: The relative growth was inactive: 0.992.

Q: Which relative growth does the source give for C[C@H]1CN([C@@H](C)CO)C(=O)c2cccc(NC(=O)Nc3ccccc3)c2O[C@@H]1CN(C)CC1CCCCC1 here?
A: Its relative growth is inactive: 0.909.

Q: For CC1(C)C(=O)C=CC2(C)C1CC(=O)C1(C)C2CCC2(C)C(c3ccoc3)OC(=O)C3OC321 (centres undefined), which relative growth is on record?
A: Its relative growth is inactive: 1.11.

Q: How did the relative growth turn out when C[C@@H]1CCCCO[C@@H](CN(C)S(=O)(=O)c2ccccc2)[C@@H](C)CN([C@@H](C)CO)C(=O)c2cc(NC(=O)Nc3cccc4ccccc34)ccc2O1 was run?
A: The relative growth was inactive: 0.979.

Q: With C[C@@H]1CN([C@@H](C)CO)C(=O)c2cc(NC(=O)Nc3ccc(F)cc3)ccc2O[C@H]1CN(C)C(=O)Nc1ccc(C(F)(F)F)cc1 as the compound, how does the relative growth read?
A: The relative growth was inactive: 1.

Q: For COc1ccc(NC(=O)N(C)C[C@H]2OCCCC[C@@H](C)Oc3ccc(NC(=O)Nc4ccc(C(F)(F)F)cc4)cc3C(=O)N([C@@H](C)CO)C[C@@H]2C)cc1, which relative growth is on record?
A: Its relative growth is inactive: 1.02.

Q: How did the relative growth turn out when C[C@@H]1CN([C@H](C)CO)C(=O)c2cc(NC(=O)Cn3cnnn3)ccc2O[C@@H]1CN(C)S(=O)(=O)c1ccc(Cl)cc1 was run?
A: The relative growth was inactive: 1.02.

Q: OC[C@H]1O[C@H](O[C@]2(CCl)O[C@H](CCl)[C@@H](O)[C@@H]2O)[C@H](O)[C@@H](O)[C@H]1Cl was tested. Which relative growth did it give?
A: The relative growth was inactive: 1.09.

Q: COc1cccc(C#Cc2ccc3c(c2)O[C@@H](CN(C)S(=O)(=O)c2ccccc2F)[C@H](C)CN([C@@H](C)CO)S3(=O)=O)c1 was tested. Which relative growth did it give?
A: The relative growth was inactive: 1.01.

Q: Which relative growth does the source give for COc1ccc(CN(C)C[C@@H]2Oc3ccc(NC(=O)Nc4ccc(C(F)(F)F)cc4)cc3CC(=O)N([C@@H](C)CO)C[C@@H]2C)cc1 here?
A: The relative growth was inactive: 0.979.

Q: With C[C@@H]1CN([C@@H](C)CO)C(=O)c2cc(NC(=O)Cn3cnnn3)ccc2O[C@@H]1CN(C)S(=O)(=O)c1ccccc1 as the compound, how does the relative growth read?
A: The relative growth was inactive: 0.978.

Q: With CO[C@@H]1CN(C)C(=O)c2cc(NC(=O)CC(F)(F)F)ccc2OC[C@H](C)N(C(=O)C2CCOCC2)C[C@@H]1C as the compound, how does the relative growth read?
A: The relative growth was inactive: 1.02.

Q: For COC(=O)[C@H]1C[C@@]2(C(=O)O)C[C@](C(=O)O)(C[C@@H](C(=O)OC)C2=O)C1=O, which relative growth is on record?
A: The relative growth was inactive: 1.

Q: For C[C@H](CO)N1C[C@H](C)[C@@H](CN(C)C(=O)C2CCCCC2)Oc2cc(C#CC(C)(C)O)ccc2S1(=O)=O, which relative growth is on record?
A: The relative growth was inactive: 1.01.

Q: For Cc1ccc(S(=O)(=O)N(C)C[C@H]2OCCCC[C@H](C)Oc3ccc(NS(=O)(=O)c4ccc(Cl)cc4)cc3C(=O)N([C@@H](C)CO)C[C@@H]2C)cc1, which relative growth is on record?
A: Its relative growth is inactive: 0.954.

Q: Which relative growth does the source give for O=c1[nH]c2ccccc2c(O)c1[I+]c1ccccc1 here?
A: The relative growth was inactive: 0.758.

Q: How did the relative growth turn out when COc1ccccc1S(=O)(=O)N[C@@H]1CC[C@@H](CCNC(=O)C2CCOCC2)O[C@@H]1CO was run?
A: Its relative growth is inactive: 0.994.

Q: Which relative growth does the source give for C[C@@H]1CN([C@H](C)CO)C(=O)c2cccc(NC(=O)C3CCCCC3)c2O[C@H]1CN(C)Cc1ccc(C(=O)Nc2ccccc2N)cc1 here?
A: Its relative growth is inactive: 1.01.

Q: C[C@@H]1CN([C@@H](C)CO)C(=O)c2cc(NC(=O)Nc3ccc(C(F)(F)F)cc3)ccc2O[C@@H](C)CCCCO[C@@H]1CN(C)C was tested. Which relative growth did it give?
A: The relative growth was inactive: 0.938.

Q: Which relative growth does the source give for C[C@H](CO)N1C[C@H](C)[C@@H](CN(C)C(=O)Nc2ccc(C(F)(F)F)cc2)Oc2c(NS(=O)(=O)c3ccc(F)cc3)cccc2C1=O here?
A: The relative growth was inactive: 0.982.

Q: For COc1ccc(S(=O)(=O)N(C)C[C@H]2Oc3ncc(C#CC4(O)CCCC4)cc3C(=O)N([C@H](C)CO)C[C@H]2C)cc1, which relative growth is on record?
A: The relative growth was inactive: 1.01.

Q: How did the relative growth turn out when CC(C)NC(=O)Nc1ccc2c(c1)C(=O)N([C@H](C)CO)C[C@H](C)[C@H](CN(C)Cc1ccc3c(c1)OCO3)O2 was run?
A: The relative growth was inactive: 1.03.

Q: Which relative growth does the source give for C[C@@H]1CN([C@@H](C)CO)C(=O)c2cccc(NC(=O)c3nc4ccccc4s3)c2O[C@@H]1CN(C)Cc1ccc(C(=O)Nc2ccccc2N)cc1 here?
A: The relative growth was inactive: 1.01.

Q: How did the relative growth turn out when Cc1cc(C)n([C@@H](C)CN)n1 was run?
A: The relative growth was inactive: 0.993.

Q: For C[C@H]1CN([C@@H](C)CO)C(=O)c2cccc(NS(=O)(=O)c3cn(C)cn3)c2O[C@H]1CN(C)S(=O)(=O)c1ccccc1, which relative growth is on record?
A: Its relative growth is inactive: 0.997.

Q: Which relative growth does the source give for Cc1ccc(S(=O)(=O)N(C)C[C@H]2Oc3ccc(NS(=O)(=O)c4ccc(F)cc4)cc3CC(=O)N([C@H](C)CO)C[C@@H]2C)cc1 here?
A: The relative growth was inactive: 1.02.

Q: Which relative growth does the source give for Cc1ccc(S(=O)(=O)N(C)C[C@@H]2Oc3c(NS(C)(=O)=O)cccc3C(=O)N([C@H](C)CO)C[C@@H]2C)cc1 here?
A: The relative growth was inactive: 0.998.

Q: For C[C@H](CO)N1C[C@H](C)[C@@H](CN(C)Cc2ccncc2)OCCCC[C@H](C)Oc2ccc(NC(=O)Nc3ccc(F)cc3)cc2C1=O, which relative growth is on record?
A: Its relative growth is inactive: 0.992.

Q: For C[C@@H]1CCCCO[C@@H](CN(C)S(=O)(=O)c2cccs2)[C@H](C)CN([C@@H](C)CO)C(=O)c2cc(NC(=O)Nc3ccc4c(c3)OCO4)ccc2O1, which relative growth is on record?
A: Its relative growth is inactive: 1.02.

Q: For CC(C)(C)c1cc(C(=O)NN)no1, which relative growth is on record?
A: The relative growth was inactive: 0.904.

Q: For C[C@@H]1CN([C@@H](C)CO)C(=O)c2cc(NC(=O)Nc3ccccc3)ccc2O[C@@H](C)CCCCO[C@H]1CN(C)C(=O)C1CCCCC1, which relative growth is on record?
A: The relative growth was inactive: 1.

Q: How did the relative growth turn out when C[C@@H]1CN([C@@H](C)CO)C(=O)CCCn2cc(nn2)CO[C@@H]1CN(C)C(=O)Nc1ccc(C(C)(C)C)cc1 was run?
A: The relative growth was inactive: 0.966.

Q: Which relative growth does the source give for C[C@@H]1CCCCO[C@@H](CN(C)Cc2ccncc2)[C@H](C)CN([C@@H](C)CO)C(=O)c2cc(NC(=O)Nc3cccc4ccccc34)ccc2O1 here?
A: Its relative growth is inactive: 1.04.

Q: With CO[C@@H]1CN(C)C(=O)c2cc(NC(=O)C3CCC3)ccc2OC[C@@H](C)N(C(=O)Nc2ccc(C(F)(F)F)cc2)C[C@H]1C as the compound, how does the relative growth read?
A: The relative growth was inactive: 1.

Q: COc1ccccc1-c1cnc2c(c1)C(=O)N([C@H](C)CO)C[C@@H](C)[C@@H](CN(C)C(=O)c1ccncc1)O2 was tested. Which relative growth did it give?
A: Its relative growth is inactive: 1.01.

Q: For C[C@H]1CN([C@@H](C)CO)S(=O)(=O)c2ccc(-c3cccc(C#N)c3)cc2O[C@@H]1CN(C)C(=O)c1cccnc1, which relative growth is on record?
A: The relative growth was inactive: 1.02.

Q: Which relative growth does the source give for O=C(C1CCCCC1)N1CC(=O)N2CCc3ccccc3C2C1 (centres undefined) here?
A: Its relative growth is inactive: 1.09.
